The source gives no read counts; variants with many changes may rest on few reads.

B1: OR4K15 (parent)
chain: GUUAACGGUCAUAGGCCAUGGAAACUAGGAGCACCAUUUCGCUGCCAGUGAAGAAAUGAACAAAGAAAAUCUGGGCCAGGCAGGCAUCAAAAGAAAUAGUCUUGCGCUCAACCAGAAAGUCUGUAAUCAUUUUAAGGGUA

This series covers variants of B1. The series can be described thus: self-cleavage, relative activity (ratio to wild type); higher = more cleavage; in vitro, sequencing; the parent is a self-cleaving ribozyme.
On to A30G U87C U133A, for which the self-cleavage amounted to 0.51.

Regarding A33G U39A G106U, the self-cleavage was determined as 0.02. Take A30U A95G U97A: the self-cleavage is 0.77. As to A33G U38C A96U, the self-cleavage turned out to be 1.96. Take A33G A56G U57G A69G U72C: the self-cleavage came to 0.21.

As to A33G U39A A56G A90G, the self-cleavage was found to be 1.42. For the variant A30U A54U A96G, the self-cleavage is 2.15. As to A30U A52G U70A U131C, the self-cleavage was 0.62. With A30G C40A A66U A68G C76U A82G U130C U139C, the self-cleavage came to 0.06.

Regarding A33G U38A U49C A54G A69G A114G, the self-cleavage came out at 0.16. For G31U A59G A110G, the self-cleavage was found to be 0.13. In the case of C32U A55G G58A A86G A129G, the self-cleavage worked out at 0.48. In the case of A33U U122C U132A, the self-cleavage is 0.77. Then A33G A78G A98G U108C, with 0.03; and A33G U49C A54G U70C, with 0.19; and G31U A69G U102A, with 0.58. As to A33U A56G A59U A62G A69U, the self-cleavage was 1.89. In the case of A33G U102C U122A, the self-cleavage amounted to 2.06. For the variant A30U A68U A96G, the self-cleavage is 1.1. With A33G A47G A98C A117U A140U, the self-cleavage is 0.42.

Turning to A30G A117G U133A, the self-cleavage was found to be 1.53. On to A30G U49A A52G, for which the self-cleavage is 0.58.

Take A30G C71U C76U A82G: the self-cleavage worked out at 0.52. The same measure for A30U A82G U124A: 0.05; for A33U A55G A59G U87C: 0.46; for A33G A51G A68G A69G A96U A129G: 0.38.

For the variant A33G U43A U122G, the self-cleavage was determined as 2.14. For the variant A33U U103A A111G, the self-cleavage is 0.04.

A30G U37C U43C A64C G104A A114G: the self-cleavage amounted to 0.

Take A33G A82G A94G U120C: the self-cleavage was 0.09. Then C34U A36U A64G A78G, with 0.28; and A33U U72C U139C, with 0.44; and A33G A116G A129G U132C, with 0.15. The same measure for A33G A63G A78G A98G U120C: 0.06; for A33G U37C A68G: 0.81.

Consider A30G U122A U132C, for which the self-cleavage turned out to be 0.98. As to A30G U102A A134G, the self-cleavage was 0.05. C34U A55G A59G A78U: the self-cleavage came to 0.24. Consider A33U A55G U100C U127C, for which the self-cleavage was 1.81. On to A33G A86G U87C, for which the self-cleavage is 0.15. For the variant C34A C40U A86G U100C U124C, the self-cleavage came out at 1.96.

A33U U37C A111U A114G A117G: the self-cleavage is 0.02. The same measure for A30G U38C A55G G119U U139C: 2.04; for A30U U49A A52G A94G: 1.86; for A30G U38A A55U G106A: 0.02. Turning to A33U A82G G83U, the self-cleavage turned out to be 0.15. Then A33G A64U A86G, with 1.37; and A30G U38A U102C, with 1.76; and A33G A63G A89G U103C A114G A125G, with 0.03. A33G U37C A86G U108C: the self-cleavage turned out to be 0.02.

In the case of A33G A60G U72A G115A U132A, the self-cleavage came to 0.01. On to A30G U57C A68G G80A A90U, for which the self-cleavage stood at 0.2. Take A33U G83A U127C: the self-cleavage stood at 0.76. C32U U39C U70A A86G: the self-cleavage was 1.5.

As to A30U A117G U127C, the self-cleavage was determined as 0.87. Take A30G U39C A78U: the self-cleavage was found to be 0.37. With A33G G41A A47U A111G U120C, the self-cleavage is 0.01.

As for A33G U38G A96G U108C A126G, the self-cleavage worked out at 0. For the variant A33U A47G A110G U133A, the self-cleavage worked out at 0.11. As to A30U U108C U122C, the self-cleavage is 0. For A30G U43A A117G, the self-cleavage came to 1.17. The same measure for A30G U43C A60G C77U A92G C107U U139C: 0.02. For the variant A33G A62G A86G A114G A125G, the self-cleavage was 0.02.

A33G G44A A78G A96C A111G A117G: the self-cleavage came out at 0.02.

Regarding A33G A67G U72C U100A, the self-cleavage is 0.07. For the variant A33G U37C A55G U124C, the self-cleavage stood at 0.76. With A30U A67G A86G, the self-cleavage stood at 1.14. The same measure for C32U A60G A118G: 0.41; for A33U U37C A67G C76U A111G: 0.03. A33G A54U A68G A82U A95G U103C U131C: the self-cleavage turned out to be 0.05. Then A33G A63G A90U, with 1.06.

A33G A116G A140G: the self-cleavage was determined as 0.39. Regarding A33G U49C A60G A94G, the self-cleavage came to 0.64.

Consider A33U U108C A126G, for which the self-cleavage is 0. A33G A78G A86G A89G U103C: the self-cleavage amounted to 0.1. As to C32U A33G A52G A78G C128A, the self-cleavage was 0.35. Regarding A33G A56G A59G A60G U102A U120C, the self-cleavage was 0.22. For A30U A54G U102C C109U U133C, the self-cleavage came to 0.61. With A33U G84A U100C U127C, the self-cleavage is 0.2. Consider A33G A55G U72C A135G, for which the self-cleavage came out at 0.09.

In the case of A30U A55U A89G, the self-cleavage amounted to 1.41. As for A30U A63G A86U, the self-cleavage amounted to 2.07. Then C32G A60G C85A, with 1.32. Then A30U U57C A60G C128A, with 0.5; and A33G A51G A68G, with 0.81. As for A33U U37C U103C, the self-cleavage was 0.56. For the variant C32U G123U U130C, the self-cleavage is 1.68.

Consider A30U A68G A90G U139C, for which the self-cleavage was found to be 1.61. Then C32U U37G A116U, with 0.56. Take A30U A62G A118U A129U: the self-cleavage was 0.26. C32U A62G A66G G104U A118G: the self-cleavage came out at 0. Then A33G A62G U72A, with 0.05; and A30G U108A A114G, with 0.02. With C32U A62G U120C, the self-cleavage is 0.72. The same measure for A30U A36U U102A: 0.75; for C32U A60U A96G: 1.63. For A33C A67G A86G U133A, the self-cleavage is 2.21. Then G31A U57A A82G C113A, with 0.01. In the case of A30G U87C U122C U127C, the self-cleavage turned out to be 0.54. In the case of A33G U39C U72C, the self-cleavage was 0.16. Regarding A30U A51G A98G, the self-cleavage amounted to 0.56. With A33U A47G A54G A69G A96G A118G, the self-cleavage worked out at 0.41.

Regarding C32U A36G U72C, the self-cleavage amounted to 0.29. A33G A52G U87A A118G: the self-cleavage was found to be 0.18.

Turning to A33G A52G A59G C85U C105A U108C, the self-cleavage was determined as 0.04. Consider A33G A60G A69U, for which the self-cleavage worked out at 1.24.

With G31A A63U A78U U131A, the self-cleavage came out at 0.23. G31U U39C A47G U72C A78G: the self-cleavage was 0.35. In the case of A30G U108C A111G A134G, the self-cleavage was found to be 0.01. With A33G U49C A92G A116G A117U, the self-cleavage was determined as 0.14.

Regarding A33G U38C A67G U87C, the self-cleavage was 1.02. Consider A30G U57C A78U U122C, for which the self-cleavage was determined as 0.14. For the variant C34U A36U A47G A126G, the self-cleavage is 0.26. The same measure for A30U A59U A69G A125G A126G: 0.33; for A33U A55U A59U: 1.6. A33G G53A A90G U103C A111U A118G U130C: the self-cleavage came out at 0. For C34U A59U C76G U132C, the self-cleavage stood at 0.06. For A30U U37C U100A, the self-cleavage worked out at 0.53.

Turning to A30G U37C U38C, the self-cleavage stood at 1.2. Turning to A30U A66G A69U A78G, the self-cleavage is 0.16. Turning to A30G U37C A51U C113G, the self-cleavage was 0.02.

With A30G G93U A126G, the self-cleavage stood at 0.84. As for A33U A78G G137A, the self-cleavage worked out at 0.23.

In the case of A33G A64U U102C, the self-cleavage was 1.12.

With C34G A47G A56G A59U U130C, the self-cleavage was found to be 0.84. The same measure for A33G U39C A92G U102C U108C U127A A135G: 0.01; for A30G U39C G80A A90G U130C: 0.22; for A33U A110U A111G U120A: 0.01.

On to C34A A69G A86U A91G U108C, for which the self-cleavage came to 0.02.

In the case of C34U A60G A62G A111C, the self-cleavage came to 0.07. Consider A30G G41U A56G U57C A60G A63U, for which the self-cleavage was found to be 1.18.

Turning to A33G A66G A68C U87C A118G, the self-cleavage came to 0.71. Consider A33U A51G A56G, for which the self-cleavage was found to be 1.49. As to A33U U57C A82G A92G A95G U130C, the self-cleavage turned out to be 0.55. As to A33U A52G A91G A114G A117U, the self-cleavage was found to be 0.14. Turning to A33G A66G A117G U132C, the self-cleavage was determined as 0.5. A33G A78G A117U: the self-cleavage is 0.07. In the case of A30G U37C A47G U72A A118U, the self-cleavage was 0.05. As for A33G U49C A78G, the self-cleavage was 0.04. Turning to A33G A52G A90G, the self-cleavage stood at 0.24. For A33G A36U U37A A82C A94G U102A U108G, the self-cleavage was 0.01. For the variant C34A U43C A54U A56G U70C, the self-cleavage was determined as 1.05. Consider G31U A54G A68G U100C, for which the self-cleavage was found to be 2.53. Regarding A30U A47G A110G A116G U132C A135G, the self-cleavage was found to be 0.04. For C32U U43C U57C, the self-cleavage was 1.58. Then A30U A51G A140G, with 0.27. On to A33G U49C A51G A54C A110G A129U, for which the self-cleavage was 0.07. On to G31A A52G A129G, for which the self-cleavage came to 1.34. On to G31A U39C A96G A118G, for which the self-cleavage was determined as 1.37.

With A33G A55G A116G, the self-cleavage amounted to 0.53. With A30G U39A A82U U103C, the self-cleavage was 0.09.

Consider A33G U37C U57C A86G U100C U108C, for which the self-cleavage was 0.01. The same measure for A30G U70C U108C: 0.09; for A30U A68G A92G: 0.66. On to A33C U38C A68G A117C, for which the self-cleavage amounted to 0.39.

For A33G A55G A64G, the self-cleavage was determined as 1.07. A30G U38C A55U A60G A64G A67G U130C: the self-cleavage stood at 0.62. In the case of A30G U37C A117G, the self-cleavage is 1.57. In the case of A33G A62G U87C G119A, the self-cleavage turned out to be 0.44.

Regarding A30G U102C U133C, the self-cleavage turned out to be 1.29. As to A30G G31C U37A G58A A62G A82G U124G, the self-cleavage worked out at 0.12.

As for A30G U37C A89U A114G U122C, the self-cleavage was found to be 0.21.

Take A33G G79U U103G U108C: the self-cleavage is 0.01.

A33G A66G C71U U72C U102C: the self-cleavage is 0.29. As for A33G U43C G73A U100C, the self-cleavage is 0.16.

Regarding A33G G53U U133A, the self-cleavage was 0.97. The same measure for A33G A91G A94U A111U: 0.06.
